# From PubChem BioAssay AID1347417 (National Center for Advancing Translational Sciences (NCATS), 2020)
# The campaign covered roughly 120,000 compounds. About 5,300 (4.4%) were called active. Inconclusive means that the source gave no clear call. Such entries were picked first, then a sample of the others. Calls come from the whole dose curve; as a rule, active = well fitted inhibition curve with a large enough effect; inconclusive = small, poorly fitted or top-dose-only effect; inactive = no such curve, though single readings can be large or run the other way. A potency beside an inconclusive call is a rough fit, not a confirmed value.
# Test: qHTS Primary assay for Inhibitors of Plasmodium falciparum Dd2 growth in vitro; note: nearly all actives have a fitted effect of over 65% in size
# Settings: P. falciparum Dd2 growth, SYBR Green, 72 h; series mostly up to 28.9 µM
# Outline: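 Readout: SYBR Green fluorescence, 485 nm excitation, 535 nm emission, after ~16 h lysis at 37C. Before that, Dd2-infected red cells (2.5% hematocrit) grew 72 h with compound, 29 uM top final concentration.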
# Potency is the fitted concentration of half-maximal effect; tags give direction and shape of the fitted curve.
row,Compound,Potency
1,O=C(CC1(O)C(=O)N(CCc2ccccc2)c2ccc(Br)cc21)c1ccc(F)cc1 (centres undefined),"inconclusive: 11.2 µM [inhibitor, single point]"
2,O=C(c1ccc(Cl)cc1Cl)N1CCC(c2nnc3n2C(C(=O)N2CCOCC2)CC3)CC1 (centres undefined),inactive
3,CCCNS(=O)(=O)c1ccc2nc(NC(=O)c3ccc(F)cc3)sc2c1,"inconclusive: 17.8 µM [inhibitor, single point]"
4,COCCOC(=O)C1=C(C)N=C2SC=C(CC(=O)N3CCOCC3)N2C1c1cccc(OC)c1 (centres undefined),"inconclusive: 3.98 µM [inhibitor, single point]"
5,O=C(NCCC1=CCCCC1)c1ccc2c(c1)N(Cc1ccccc1F)C(=O)c1ccccc1S2=O (centres undefined),active: 12.6 µM
6,O=C(Nc1ccc(-c2nnc3n2CCCC3)cc1)Nc1ccccc1Cl,"inconclusive: 3.98 µM [inhibitor, partial curve, poor fit]"
7,C[S+](=O)([O-])NCCn1ccc2cc(OC3CCN(C(=O)C4CCCC4)CC3)cnc21,inactive
8,COc1cc(C(=O)OCc2cc(=O)n3nc(C4CCCCC4)sc3n2)cc(OC)c1OC,"inconclusive: 11.2 µM [inhibitor, single point]"
9,CCOC(=O)c1cc(C)n(CC2CCC(C(=O)Nc3ccc(C(C)=O)cc3)CC2)c1C (centres undefined),"inconclusive: 10 µM [inhibitor, single point]"
10,COc1cc(NS(=O)(=O)c2cnc(N)nc2)cc(OC)c1,"inconclusive: 0.0316 µM [inhibitor, full curve, poor fit]"
11,CCOc1ccc(/C=C/C(=O)Nc2sc3c(c2C(=O)OC)C(C(=O)OC)CC3)cc1 (centres undefined),inactive
12,CC(=O)N1CCN([C@H]2[C@@H]3OC[C@@H](O3)[C@@H](NC(=O)Nc3ccccc3)[C@@H]2O)CC1,"inconclusive: 0.447 µM [inhibitor, full curve]"
13,COC(=O)c1ccc(NC(=O)CSc2nc(C)cc(C)c2C(=O)Nc2ccccc2)cc1,"inconclusive: 10 µM [inhibitor, single point]"
14,CN(Cc1cnccn1)C(=O)CC(c1ccccc1)c1ccccc1Cl (centres undefined),inactive
15,Cc1nc2ccc(CC(=O)N[C@H](c3ccccn3)C3CC(O)C3)cc2[nH]1 (some centres undefined),inactive
16,COC1CN(c2ccc(C)cc2)C12CCN(C(=O)c1ccco1)CC2 (centres undefined),"inconclusive: 4.47 µM [inhibitor, partial curve, poor fit]"
17,NCc1ccc(-c2cccc(Cl)c2)cc1,active: 10 µM
18,Cc1ccc(-n2ncc(C(=O)NCCc3ccccc3)c2C2CCN(C(=O)OC(C)(C)C)CC2)c(C)c1,active: 10 µM
19,COc1cc(Cl)ccc1-c1cccc(COc2cnc3c(ccn3CC(=O)O)c2)c1,inactive
20,COCC1CN(C(C)=O)CC12CCN(Cc1c[nH]c3ccccc13)CC2 (centres undefined),inactive
21,O=C(C1CCCC1)N1CC2(CCN(Cc3ccc(Cl)cc3)CC2)Cc2ccccc21,"inconclusive: 10 µM [inhibitor, partial curve, poor fit]"
22,COCCNC(=O)[C@H]1C[C@H](Oc2ccccc2)CN1S(=O)(=O)c1ccc(OC)cc1,inactive

row,Compound,Potency
1,CCC(C(=O)NCCn1ccn2nc(-c3cccc(OC)c3)cc2c1=O)c1ccccc1 (centres undefined),"inconclusive: 20 µM [inhibitor, single point]"
2,CCc1cccc(C)c1NC(=O)Cn1c(N(C)Cc2ccccc2)nc(C)cc1=O,active: 11.2 µM
3,O=C(NCC1CC1)c1cccc(OC2CN(Cc3ccc(OC(F)(F)F)cc3)C2)c1,active: 8.91 µM
4,CCC(=O)N1CCc2c(C(=O)N3CCN(c4cccc(OC)c4)CC3)cccc21,inactive
5,Cn1cnc2ccc(-c3cccc(O)c3)nc2c1=O,"inconclusive: 0.891 µM [inhibitor, full curve, poor fit]"
6,O=C(Nc1ccc(S(=O)(=O)N2CCCCC2c2cccnc2)cc1)c1ccc(Br)cc1 (centres undefined),"inconclusive: 17.8 µM [inhibitor, single point]"
7,COCCC(=O)N1CCCOCCNC(=O)[C@@H]2CCC[C@@H]21,inactive
8,COc1cccc(CCC(=O)N2CCC(OCC3CC3)C2)c1 (centres undefined),"inconclusive: 12.6 µM [inhibitor, partial curve, poor fit]"
9,COc1ccc(OC)c(C(O)Cn2ccn3nc(-c4ccc(C(C)C)cc4)cc3c2=O)c1 (centres undefined),"inconclusive: 1.58 µM [inhibitor, partial curve, poor fit]"
10,CC(C)c1nc(N2CCCCCC2)ncc1C(=O)O,inactive
11,COc1ccc(CC(=O)NC2CCCc3c2[nH]c2c(Cl)cccc32)cc1 (centres undefined),"inconclusive: 20 µM [inhibitor, single point]"
12,Cn1cccc1CN1CC(Oc2ccc(F)cc2F)C1,"inconclusive: 15.8 µM [inhibitor, single point]"
13,CN(C)C[C@@H]1CN(Cc2ccccc2)C[C@H]1NC(=O)c1ccncn1,"inconclusive: 0.251 µM [inhibitor, full curve, poor fit]"
14,c1ccc(CNC[C@H]2Cn3c(-c4ccccc4)cnc3CO2)cc1,active: 11.2 µM
15,O=C1CCC2(C(=O)NCCc3ccccc3)CCCC=C2N1c1ccccc1 (centres undefined),inactive
16,COc1ccc(NC(=O)CSc2ccc3nc(-c4ccccc4)cn3n2)c(OC)c1,"inconclusive: 11.2 µM [inhibitor, partial curve, poor fit]"
17,FC(F)(F)c1cccc(Nc2ncc(-c3cccnc3)c3c2OCC3)c1,active: 8.91 µM
18,CSc1cccc(NC(=O)c2cccc(N3CCCS3(=O)=O)c2)c1,"inconclusive: 14.1 µM [inhibitor, partial curve]"
19,Cc1cc(OCCN2CCOCC2)c(C)c2c1CC[C@@H]([C@H](C)C(=O)N1CCOCC1)C2,inactive
20,COc1ccccc1NC(=O)c1sc2nc(C)c(C(=O)Nc3ccc(C)cc3C)c(-c3ccco3)c2c1N,"inconclusive: 14.1 µM [inhibitor, partial curve, poor fit]"
21,CC(C)c1ccc(NC(=O)c2ccc(F)c(S(=O)(=O)N3CCc4ccccc43)c2)cc1,"inconclusive: 12.6 µM [inhibitor, single point]"
22,CCC(C)NC(=O)CSc1nc2n[nH]c(C)c2c(=N)n1-c1cc(Cl)ccc1C (centres undefined),"inconclusive: 10 µM [inhibitor, partial curve, poor fit]"
